# Source: publication PMC7819943, “Rice protein-binding microarrays: a tool to detect cis-acting elements near promoter regions in rice”
# The other results are listed elsewhere or left out.
# Target: T1, OsWOX13 (Oryza sativa, UniProt Q5QMM3 1-267)
# T1 sequence: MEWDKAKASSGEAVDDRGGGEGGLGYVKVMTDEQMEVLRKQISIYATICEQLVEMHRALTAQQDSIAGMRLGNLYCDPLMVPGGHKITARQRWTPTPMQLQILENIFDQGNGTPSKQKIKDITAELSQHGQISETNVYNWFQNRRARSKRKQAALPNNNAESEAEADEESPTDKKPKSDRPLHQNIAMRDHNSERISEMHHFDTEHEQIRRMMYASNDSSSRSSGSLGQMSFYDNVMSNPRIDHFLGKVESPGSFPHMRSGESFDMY
# Assay: protein-binding microarray (RPBM); PBS, 2% BSA, 51.3 ng/ul salmon testes DNA, 50 uM zinc acetate, 200 nM TF, 25 C, 1 h; high values mean tight binding
# Conditions: protein: recombinant; tags: N-terminal polyhistidine and DsRed monomer fusion (pET32a); label: CyDye5-dUTP incorporated in the synthesized complementary strand; 3' TTTTT single-stranded linker to array surface; dsDNA, one strand shown
# Outline: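 Per-feature fluorescence intensity (arbitrary units), read on an Axon 4000B scanner, is the binding signal. Transcription factors carrying an N-terminal polyhistidine tag and DsRed fusion were expressed in E. coli BL21-CodonPlus and purified on Ni–NTA. A custom Agilent array, made double-stranded by primer extension with Cy5-dUTP and blocked with 2% BSA, was incubated with 200 nM protein in PBS, 2% BSA, salmon testes DNA and 50 µM zinc acetate at 25 °C for 1 h and then washed.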
row,Sequence,binding signal
1,CCAAAACTATTAACTGCAACCTTACCTGATGATATATTTGCGGAGTCACCTAGTGCAG,5780 fluorescence intensity (a.u.)
2,TATAATTCCATGATAAATTTAATACTAAATACGTAATTTTCGGAGTCACCTAGTGCAG,8520 fluorescence intensity (a.u.)
3,ACTCCTGTCAGGTCAGGAAATTTGCTTGAAATCTTCCCGACGGAGTCACCTAGTGCAG,3550 fluorescence intensity (a.u.)
4,GATTAATCCAATTGACTTTGATGAGGATGTGCCACTATTTCGGAGTCACCTAGTGCAG,6820 fluorescence intensity (a.u.)
5,CTAACTGCATCTCATGATTTTCTGAAAATATATATATCCACGGAGTCACCTAGTGCAG,4090 fluorescence intensity (a.u.)
6,CATAAATTACTTACTTCCTCCGTCCCAAAATATAGCATTTCGGAGTCACCTAGTGCAG,14600 fluorescence intensity (a.u.)
7,ATTTGATTAAGTTTTAGTTATTACAAACTTTGTAAATTAACGGAGTCACCTAGTGCAG,29600 fluorescence intensity (a.u.)
8,AGGTTATTATTTAAATTCAAATTAGTGAAATTTTACATAACGGAGTCACCTAGTGCAG,5620 fluorescence intensity (a.u.)
9,CCGACTGATTATGCCGCCGCCGACTGGTGCTTTTATCTTCCGGAGTCACCTAGTGCAG,15100 fluorescence intensity (a.u.)
10,CCCGCGTTCTAAAGTGCTAATTAAGGTTAGTTACTCCTCACGGAGTCACCTAGTGCAG,3270 fluorescence intensity (a.u.)
11,CATAAATTATGCTAAGGATTAATTATGGTCAGTCTACTAACGGAGTCACCTAGTGCAG,20500 fluorescence intensity (a.u.)
12,AATTTCAATCAAATTTTCAATTTTGGCGTGAACTAAACACCGGAGTCACCTAGTGCAG,25600 fluorescence intensity (a.u.)
13,CTTAGATTTAATGATGAACTCCGTGAAAATCCTGTGCTGACGGAGTCACCTAGTGCAG,24600 fluorescence intensity (a.u.)
14,TAAAATTGAAGCCTCGAAGCAATCTTTAACTTTTCTCTTCCGGAGTCACCTAGTGCAG,4580 fluorescence intensity (a.u.)
15,ATAACAAAATAAATTACAGATTCCGCCAGAAAACTGCGAGCGGAGTCACCTAGTGCAG,7960 fluorescence intensity (a.u.)
16,TTATTAGCGCATGATTAATTAAGTACCCGTCCGTTCCAAACGGAGTCACCTAGTGCAG,5370 fluorescence intensity (a.u.)
17,TAAAACTGATATGTCACATTAGTATTAATATTAGAAGCAGCGGAGTCACCTAGTGCAG,11400 fluorescence intensity (a.u.)
18,TAAATTTAAAGCAATTTAACTTTAATTAAAGTTTAAATAACGGAGTCACCTAGTGCAG,19800 fluorescence intensity (a.u.)
19,TCTTGCTATTATAACTCCAATCAAACTACGAATTCTGGTACGGAGTCACCTAGTGCAG,3450 fluorescence intensity (a.u.)
20,TTTAGATAGATAAGTAAGCAGTGAGCTACCTAGCTAGCTACGGAGTCACCTAGTGCAG,4460 fluorescence intensity (a.u.)
21,TTTAACAAATGATTTTACTCATTCATCGTGTGACACATCCCGGAGTCACCTAGTGCAG,11100 fluorescence intensity (a.u.)

row,Sequence,binding signal
1,AGTAATTATATCACATTGCTTTTAGATTCAAACAGCAACACGGAGTCACCTAGTGCAG,19500 fluorescence intensity (a.u.)
2,ACAGTAAGTACAAGTTTCAATCAACCTGAGATAAACTTTTCGGAGTCACCTAGTGCAG,3340 fluorescence intensity (a.u.)
3,AATCTAATTATCGTTTAGAAACCTGAGGATTATTAAATTTCGGAGTCACCTAGTGCAG,8980 fluorescence intensity (a.u.)
4,CGGGTTTGATTTGATTTGATTTTGATTTTGATTTGCTTCTCGGAGTCACCTAGTGCAG,53400 fluorescence intensity (a.u.)
5,CTGACTGGTGACGCCTGTTGATAACCGTAGATACGCTTGCCGGAGTCACCTAGTGCAG,3680 fluorescence intensity (a.u.)
6,GTATTAATCAAACATCAGTCAAACTGTTGTGGCAGCCGCACGGAGTCACCTAGTGCAG,11000 fluorescence intensity (a.u.)
7,CTAAATTGCAGTCCCAGTAGCGACTGCAGCTGATCCGGATCGGAGTCACCTAGTGCAG,10900 fluorescence intensity (a.u.)
8,AAAATATATTCAATTATTGATTTGATGCCACTAATTCAGTCGGAGTCACCTAGTGCAG,23600 fluorescence intensity (a.u.)
9,TCTGTAATTATATCAGGTTGCTCTTGAACTATGCAGTCAGCGGAGTCACCTAGTGCAG,16900 fluorescence intensity (a.u.)
10,ATCAATCAAAATCAATAAAGCTAGCGCACTAGGATTACACCGGAGTCACCTAGTGCAG,11200 fluorescence intensity (a.u.)
11,CGTCTATCAAATTGCGAAACCAGATAAAACGTGTAAGCTTCGGAGTCACCTAGTGCAG,4610 fluorescence intensity (a.u.)
12,GATCCTTTGATTAAACACAACTAACTTCCACGTTGCATATCGGAGTCACCTAGTGCAG,6320 fluorescence intensity (a.u.)
13,GCAAAATTTTAGCAATTACTTACAAATAACCGATCTAAAACGGAGTCACCTAGTGCAG,12000 fluorescence intensity (a.u.)
14,AATGTAATTACTTCTAATGCTATAGAGAGCTACTTCTACTCGGAGTCACCTAGTGCAG,19900 fluorescence intensity (a.u.)
15,GTCTGACAGGACAGTGGCGACCCAATCCCCAATCTCCATTCGGAGTCACCTAGTGCAG,8460 fluorescence intensity (a.u.)
16,CCATCAAATCCCAATCTAACAATTGTGATTCAACGTATGTCGGAGTCACCTAGTGCAG,4340 fluorescence intensity (a.u.)
17,TTTTAATTATATGGTAGACGCATACGCACACACCTCTACGCGGAGTCACCTAGTGCAG,25000 fluorescence intensity (a.u.)
18,TAGAATAAAGTAATTTGATTTGAATACAAAGTCGAATTAACGGAGTCACCTAGTGCAG,8180 fluorescence intensity (a.u.)
19,TCCTGGATAAACTCATGGTAAATTGACTAATGCTAATGTTCGGAGTCACCTAGTGCAG,8090 fluorescence intensity (a.u.)
20,CTGCAAAGAAGATTGGCTGTCCATGGAATCATGGATGATTCGGAGTCACCTAGTGCAG,5830 fluorescence intensity (a.u.)
21,AATAAATTTTATAACTCACATATACTATTTATCATGTAGTCGGAGTCACCTAGTGCAG,11300 fluorescence intensity (a.u.)
